Screen size: about 46,000 compounds; about 60 (0.1%) were called active. Roughly 3% stayed inconclusive and do not appear here. Calls follow the shape of the dose curve; as a rule, active = well fitted inhibition curve with a large enough effect; inconclusive = small, poorly fitted or top-dose-only effect; inactive = no such curve, though single readings can be large or run the other way. This is one part of the list.
Test: Primary qHTS assay for Inhibitors of ovarian cancer metastasis using an organotypic tumor microenvironment (TME) model. Also: nearly all actives have a fitted effect of over 65% in size.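 As to activity change, negative = inhibition: plate controls were DMSO wells for no effect and tomatine positive control wells for full effect.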
Conditions: SKOV3ip1-GFP adhesion/invasion on 3D omental model, fluorescence; series mostly up to 45.8 µM; activity change, negative = inhibition: at the top concentration
Procedure, shortened: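 Primary human omental fibroblast/mesothelial 3D culture pre-formed 48 h. SKOV3ip1-GFP cells added with compounds (0.36-46 umol/L), incubated 2 h RT/16 h 37 C, fixed; GFP cells quantified at 488/509 nm.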

Activity change, negative = inhibition, inactive:
CCOc1cccc(C2c3[nH]c4ccccc4c3CCN2C(=O)c2ccccc2F)c1 (stereo not given) 0.43%, CCOc1ccccc1C(=O)Nc1ccc(S(=O)(=O)Nc2onc(C)c2C)cc1 -19.1%, COc1ccc(NC(=O)Cn2cnc3sc(C)c(S(=O)(=O)N4CCN(c5ccccc5OC)CC4)c3c2=O)cc1OC -12.4%, COc1ccc(S(=O)(=O)n2nc(-c3ccco3)nc2NCc2ccc(N(C)C)cc2)cc1 9.84%, COc1ccc(S(=O)(=O)c2cn(CC(=O)Nc3cc(C)ccc3C)c3ccccc3c2=O)cc1 9.62%, Cc1ccc(CNC(=O)N2CCC(CN3CCC(C)CC3)CC2)cc1 -6.29%, CCN1CCN(Cc2nc3cc(NC(=O)c4cc(OC)c(OC)c(OC)c4)ccc3n2CC)CC1 13.6%, COc1cc(OC)cc(-c2nc3nc(C)c(CCC(=O)Nc4ccc(C)c(C)c4)c(C)n3n2)c1 15.4%, Cc1ccc(C)c(N2CCN(C(=O)Cn3ncc4c(=O)oc5ccccc5c43)CC2)c1 14.2%, Cc1ccc2scc(N3CCc4ccccc4C3)c(=O)c2c1 2.28%, CC(C)c1ccc(NC(=O)CN2C(=O)COc3ccc(S(=O)(=O)N4CCCCC4)cc32)cc1 -13.7%, CCc1ccccc1NC(c1nnc(-c2cccc(F)c2)o1)c1ccc(F)cc1Cl (stereo not given) 2.22%, Cc1ccc(S(=O)(=O)NC2(C(F)(F)F)NC(=O)N(CCc3ccccc3)C2=O)cc1 (stereo not given) 8.88%, COc1cccc2c1cc1c(=O)n(CC(=O)N3CCN(c4ccc(Cl)cc4)CC3)nc(C)n12 8.89%, Cc1ccc(NS(=O)(=O)c2ccc3c(c2)n(C)c(=O)n3C)cc1C 0.79%, COc1ccccc1NC(=O)Cn1c(SCC(=O)N(C)c2ccccc2)nc2ccccc21 -4.04%, Cc1cc2nc(-c3ccc(OCc4ccccc4Cl)cc3)cc(C(F)(F)F)n2n1 14.1%, COc1cccc(C(=O)N2CCN(CCc3ccncc3)CC2)c1 -3.46%, Cn1c(=O)c2c(-c3cccc(Br)c3)n(C(C)(C)CO)cc2n(C)c1=O -15.9%, CCC(C(=O)NCc1ccco1)n1nc(C)c2c(C)n(-c3ccc(C)cc3)nc2c1=O (stereo not given) 2.23%, O=C(Nc1ccccc1Cl)C1CCN(c2nc3ccccc3nc2C(F)(F)F)CC1 14.8%, CCOc1ccccc1NC(=O)CSc1nnc2[nH]c(=O)cc(-c3ccccc3)n12 -0.608%, Cc1cc(C)cc(NC(=O)Cn2cc(S(=O)(=O)NC(C)(C)C)c(S(=O)(=O)NC(C)(C)C)c2)c1 2.95%, N#CC(c1ccnc(NCCc2cccnc2)n1)c1nc2ccccc2s1 (stereo not given) -4.02%, CNC(=O)c1c(NC(=O)c2ccc(S(=O)(=O)N3CCCCC3)cc2)sc2c1CCC2 -12.6%, CCOc1ccc(N2CC(NC(=O)/C=C\c3ccc4c(c3)OCO4)CC2=O)cc1 (stereo not given) 13.9%, COc1ccc(-n2ccnc(NCc3ccccc3OC)c2=O)cc1 1.27%, CCOC(=O)c1sc2ccccc2c1S(=O)(=O)Nc1ccc(CC)cc1 -20.8%, CCc1ccc(C(=O)c2cn(CC(=O)NC3CCCCC3)c3nc(C)ccc3c2=O)cc1 -18.8%, COc1ccc(-n2nc(C(=O)N3CCCC(C)C3)c3c4ccccc4n(C)c3c2=O)cc1 (stereo not given) 3.98%, CCOC(=O)c1cc2c(=O)n3ccccc3nc2n(C(C)C)c1=NC(=O)c1cc2ccccc2o1 3.76%, COc1cccc(CNC(=O)c2ccc3c(c2)c(C)c(C)n3Cc2ccccc2)c1OC -5.12%, COc1ccc(NS(=O)(=O)c2cc(Br)cc3c2N(C(=O)C2CC2)CC3)cc1OC -0.41%, O=S(=O)(Nc1cc(F)ccc1F)c1ccc2[nH]c3c(c2c1)CCCC3 2.11%, NS(=O)(=O)c1ccc(CCNc2nccn(-c3cccc(C(F)(F)F)c3)c2=O)cc1 0.205%, CSc1nc2c(c(=O)[nH]1)C(c1cccc(F)c1F)CC(=O)N2 (stereo not given) -18.4%, O=C(Cc1ccccc1)NC1CC(=O)N(c2ccccc2)C1 (stereo not given) -12.7%, O=c1c2oc3ccccc3c2n(Cc2cccc(Cl)c2)c(=O)n1Cc1ccco1 0.28%, COc1ccc(-c2cc(C(F)(F)F)nc(SCCC(=O)Nc3ccccc3F)n2)cc1 0.291%, Cc1ccc2occ(CC(=O)N(Cc3ccc(Cl)cc3)C3CCS(=O)(=O)C3)c2c1 (stereo not given) -4.41%, CCOC(=O)c1ccccc1NC(=O)CSc1ccc(-c2cccs2)nn1 -5.94%, Cc1cc(-c2nc3ncccc3o2)ccc1NC(=O)COc1ccccc1C 0.568%, Cc1nnc(N2CCN(C(=O)NC(C)C)CC2)c2nn(-c3ccccc3)c(C)c12 -2.55%, CCN(CC)c1ccc(NC(=O)c2cnc3c(-c4ccccc4)c(C)nn3c2C)c(C)c1 9.98%, Cc1c(NC(=O)c2cc(-c3ccc(F)cc3)on2)c(=O)n(-c2ccccc2)n1C 2.07%, CCc1ccc(Nc2nn(-c3ccc(OC(F)(F)F)cc3)nc2C(C)=O)cc1 7.26%, CCCC1=Nc2cc(C(=O)NC3CCCC3)ccc2Sc2ccc(C)cc21 -7.73%, Cc1cc(C)cc(NC(=O)CSc2cc(C)[nH]c(=O)n2)c1 7.08%, COc1cccc2c1cc1c(=O)n(CC(=O)N3CCN(c4cccc(C)c4)C(C)C3)nc(C)n12 (stereo not given) 6.14%, CCOC(=O)CC(NC(=O)Cn1nnc(-c2ccc(C(F)(F)F)cc2)n1)c1ccc(OC)cc1 (stereo not given) 5.68%, CCOc1ccc(NC(=O)C2CC(=O)N(c3ccc(C(C)C)cc3)C2)cc1 (stereo not given) -0.717%, C[C@@H](O[C@H]1OCCN(Cc2n[nH]c(=O)[nH]2)[C@@H]1c1ccc(F)cc1)c1cc(C(F)(F)F)cc(C(F)(F)F)c1 -12%, COc1ccc(C(=O)N2CCN(Cc3cc(=O)n4nc(-c5ccccc5C)sc4n3)CC2)cc1OC -4.85%, CC(=O)Nc1ccc(-c2cc(C(=O)O)c3c(-c4ccccc4)[nH]nc3n2)cc1 9.92%, COc1cc(CN(C(=O)COc2ccc(C)cc2)c2ccccn2)cc(OC)c1OC -0.472%, CCCCNC(=O)c1nn(-c2ccc(CC)cc2)nc1CO 15.8%, Cc1cccc(NC(=O)C2CCN(S(=O)(=O)c3ccc(F)cc3)CC2)c1C -7.65%, CCOC(=O)c1ccc(NS(=O)(=O)c2ccc3c(c2)n(C)c(=O)n3C)cc1 5.97%, CCc1ccccc1NC(=O)Cn1nnc(C(=O)NCc2ccccc2Cl)c1N -10.7%, CC1CCC(NC(=O)c2ccc3c(c2)N(Cc2cccc(Cl)c2)C(=O)c2ccccc2S3(=O)=O)CC1 (stereo not given) -7.44%, CCCn1c(=O)sc2cc(NC(=O)COc3ccc(Cl)cc3)ccc21 -8.3%, COc1cccc(-n2c(=O)c3c4c(sc3n(Cc3ccc(C)cc3)c2=O)CCCC4)c1 -0.148%, COc1ccc(-c2nc(CSCC(=O)N3CCN(c4cccc(C)c4C)CC3)c(C)o2)cc1OC -0.408%, CCN(CC)CCCNC(=O)CN1C(=O)CCn2nc(-c3cn(C)c4ccccc34)cc21 -2.37%, COc1cccc(C(=O)Nc2ccccc2C(=O)OCc2cc(=O)n3nc(C4CC4)sc3n2)c1 8.8%, Cc1c(C(=O)N2CCCC2)oc2c1-c1nn(CC(=O)NCCCOC(C)C)cc1CC2 -6.97%, Cc1ccc(C(=O)c2cn(CC(=O)NC3CCCCC3)c3nc(C)ccc3c2=O)cc1 -0.437%, CN(C)CCN(Cc1ccccc1)S(=O)(=O)c1ccc2[nH]c(=O)ccc2c1 0.119%, O=C(Nc1cc2c(cc1C(=O)c1ccccc1)OCCO2)c1ccc(Br)cc1 0.43%, COc1cc(-c2nc(Cn3nnc(C(=O)Nc4ccccc4)c3C)c(C)o2)cc(OC)c1OC -12.7%, Cc1ccc(CNC(=O)c2cccn2-c2nnc(N3CCCCC3)s2)cc1 -14.6%

outcome, inactive:
CCC1CN(C(=O)NCc2ccc(C)cc2)c2cc(Cl)ccc2O1 (stereo not given), Fc1ccc(Nc2ncnc3onc(-c4cccc(Cl)c4)c23)c(F)c1, O=C1N(Cc2ccccc2)c2ccc(Cl)cc2C1(O)c1c[nH]c2ccccc12 (stereo not given), Cc1cccc(C(=O)NCC(=O)OCc2cc(=O)n3nc(CC(C)C)sc3n2)c1, CN(C)c1ccc(CNC(=O)c2cccc(NC(=O)N3CCSc4ncccc43)c2)cc1, O=C(c1ccccc1)n1nc(-c2ccccc2)nc1NCc1ccc(F)cc1, CCCCN(CCCC)CCNC(=O)Cn1nc(C)n2c(cc3sccc32)c1=O, CC(C)c1ccc(NC(=O)CS(=O)(=O)c2cccc3nsnc23)cc1, CC(C)(C)C(=O)Nc1ccc2nc(SCC(=O)N3CCOCC3)sc2c1, COc1ccccc1N1CCN(C(=O)CN2C(=O)COc3ccc(S(=O)(=O)N4CCCCCC4)cc32)CC1, Cc1cccc(OCC(=O)Nc2nc3c(s2)CC(C(C)(C)C)CC3)c1C (stereo not given), Cc1ccc(-c2noc(CNS(=O)(=O)c3ccc(F)cc3)n2)cc1, Cn1cc(S(=O)(=O)c2cccc(Cl)c2)c(=O)c2cc(F)c(N3CCN(c4ccc(F)cc4)CC3)cc21, Cn1c(=O)n(-c2ccc3c(c2)OCO3)c2nc(-c3ccccc3)nc(C(N)=O)c21, COc1ccc(NC(=O)c2sc3nc[nH]c(=O)c3c2C)cc1Cl, COc1ccc(C)cc1NC(=O)c1ccc2c(SCC(=O)O)c3c(nc2c1)CCCC3, COc1cccc(CN(C(=O)c2oc3cc(C)ccc3c2C)C2CCS(=O)(=O)C2)c1 (stereo not given), Cc1ccc2nc(-c3ccccc3F)c(Nc3ccc(Cl)cc3)n2c1, COc1ccc(CCNC(=O)c2ccc3c(c2)c(C)c(C)n3Cc2ccc(F)cc2)c(OC)c1OC, COc1ccc(-c2nc3c4ccccc4n(CC(=O)N4CCN(c5ccccc5OC)CC4)c(=O)n3n2)cc1, O=S(=O)(NCc1ccc(F)cc1)c1ccc(-c2cnc(C3CC3)o2)cc1, Cc1nnc(NC(=O)CSCc2cc(=O)c3cc(Cl)ccc3[nH]2)s1, O=C(c1cccn1-c1nnc(N2CCCC2)s1)N1CCN(c2ccccc2)CC1, COc1ccccc1-n1ncc2c(=O)[nH]c(SCC(=O)Nc3ccc(Cl)cc3)nc21

Reference: PubChem BioAssay AID1963576 (National Center for Advancing Translational Sciences (NCATS), 2024)
